{"source": "paper PMC10548512", "about": "(Chemical Science, 2023)", "conditions": "incubation for a total of 4 hours, 37 °C, PURExpress translation mixture; read-out MALDI-TOF-MS; no further change to product", "data": [{"substance": "H-CILFPTGKRB-OH (sidechain bridge or staple) [P1]", "values": [{"measurement": "Stability of macrocyclic peptide in in vitro translation reaction mixture", "result": "stable"}]}]}
